Measured values reported in the supplement of paper PMC10037445.
Over roughly 2,900 compounds, “NF-kB SEAP reporter activity, fold change vs agonist alone” has its median near 0.99; the highest 2% begin near 2.6. This is one part of the list.

Key:
RAW-Dual [1] = assay: NF-kB SEAP reporter activity, fold change vs agonist alone; higher = enhanced NF-kB activity; details: cytotoxicity flag (confluency mask): not cytotoxic
Outline: (§1)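 Supernatant from RAW-Dual macrophages was read after 20 hours for IRF by QuantiLuc luminescence and for NF-κB by QuantiBlue absorbance at 620 nm. The cells (50,000 cells/well in DMEM, 384-well plates, 37 °C, 5% CO2) had received 50 nL of library stock by pin tool and, 1 h later, a PRR agonist. Reporter activity is expressed relative to agonist-alone wells as fold change, and wells were flagged cytotoxic if IncuCyte confluency was under 70% of agonist controls in both mask sets.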

RAW-Dual [2] = assay: NF-kB SEAP reporter activity, fold change vs agonist alone; cytotoxicity flag (confluency mask): not cytotoxic; higher = enhanced NF-kB activity
Outline: as §1

[3] = library stock concentration (final ~1000-fold dilution): 10 mM, agonist: Imiquimod (TLR7) […]
[4] = library stock concentration (final ~1000-fold dilution): 10 mM, agonist: MPLA (TLR4) […]
[5] = agonist: ODN 1826 (TLR9) 0.5 ug/mL
[6] = agonist: Pam2CSK4 (TLR2/6) 0.1 ug/mL
[7] = agonist: Pam3CSK4 (TLR2/1) 0.1 ug/mL
[8] = library stock concentration (final ~1000-fold dilution): 2 mM, agonist: Imiquimod (TLR7) […]
[9] = library stock concentration (final ~1000-fold dilution): 2 mM, agonist: MPLA (TLR4) […]

Structure (SMILES): CS(=O)(=O)CCNCc1ccc(-c2ccc3ncnc(Nc4ccc(OCc5cccc(F)c5)c(Cl)c4)c3c2)o1.Cc1ccc(S(=O)(=O)O)cc1.Cc1ccc(S(=O)(=O)O)cc1
- NF-kB SEAP reporter activity (RAW-Dual [1]; [3]): 1.68
- NF-kB SEAP reporter activity (RAW-Dual [1]; [4]): 1.56

Structure (SMILES): CS(=O)(=O)CCNCc1ccc(-c2ccc3ncnc(Nc4ccc(OCc5cccc(F)c5)c(Cl)c4)c3c2)o1.Cc1ccc(S(=O)(=O)O)cc1.Cc1ccc(S(=O)(=O)O)cc1 (library stock concentration (final ~1000-fold dilution): 10 mM)
- NF-kB SEAP reporter activity (RAW-Dual [2]; agonist: LPS (TLR4) 0.1 ug/mL): 4.16
- NF-kB SEAP reporter activity (RAW-Dual [2]; [5]): 0.272
- NF-kB SEAP reporter activity (RAW-Dual [2]; [6]): 0.851
- NF-kB SEAP reporter activity (RAW-Dual [2]; [7]): 1.14

Structure (SMILES): Nc1ccc(S(=O)(=O)Nc2cnc3ccccc3n2)cc1 (library stock concentration (final ~1000-fold dilution): 10 mM water)
- NF-kB SEAP reporter activity (RAW-Dual [2]; agonist: LPS (TLR4) 0.1 ug/mL): 1.29
- NF-kB SEAP reporter activity (RAW-Dual [2]; [5]): 1.14
- NF-kB SEAP reporter activity (RAW-Dual [2]; [6]): 1.22
- NF-kB SEAP reporter activity (RAW-Dual [2]; [7]): 1.07

Structure (SMILES): Nc1ccc(S(=O)(=O)Nc2cnc3ccccc3n2)cc1
- NF-kB SEAP reporter activity (RAW-Dual [1]; library stock concentration (final ~1000-fold dilution): 10 mM water, agonist: MPLA (TLR4) […]): 1.02

Structure (SMILES): O=C1C(CCS(=O)c2ccccc2)C(=O)N(c2ccccc2)N1c1ccccc1 (configuration not stated) (library stock concentration (final ~1000-fold dilution): 10 mM)
- NF-kB SEAP reporter activity (RAW-Dual [2]; agonist: LPS (TLR4) 0.1 ug/mL): 1.16
- NF-kB SEAP reporter activity (RAW-Dual [2]; [5]): 0.919
- NF-kB SEAP reporter activity (RAW-Dual [2]; [6]): 1.25
- NF-kB SEAP reporter activity (RAW-Dual [2]; [7]): 0.905

Structure (SMILES): O=C1C(CCS(=O)c2ccccc2)C(=O)N(c2ccccc2)N1c1ccccc1 (configuration not stated)
- NF-kB SEAP reporter activity (RAW-Dual [1]; [4]): 0.927

Structure (SMILES): Cc1cc(N=Nc2ccc(S(=O)(=O)Nc3ccccn3)cc2)c(N)cc1O (library stock concentration (final ~1000-fold dilution): 10 mM)
- NF-kB SEAP reporter activity (RAW-Dual [2]; agonist: LPS (TLR4) 0.1 ug/mL): 3.77

Structure (SMILES): CC1(C)CC1C(=O)N/C(=C\CCCCSCC(N)C(=O)O)C(=O)O (configuration not stated)
- NF-kB SEAP reporter activity (RAW-Dual [1]; [3]): 0.969
- NF-kB SEAP reporter activity (RAW-Dual [1]; [4]): 1

Structure (SMILES): CC1(C)CC1C(=O)N/C(=C\CCCCSCC(N)C(=O)O)C(=O)O (configuration not stated) (library stock concentration (final ~1000-fold dilution): 10 mM)
- NF-kB SEAP reporter activity (RAW-Dual [2]; agonist: LPS (TLR4) 0.1 ug/mL): 0.995
- NF-kB SEAP reporter activity (RAW-Dual [2]; [5]): 0.976
- NF-kB SEAP reporter activity (RAW-Dual [2]; [6]): 1.06
- NF-kB SEAP reporter activity (RAW-Dual [2]; [7]): 1.1

Structure (SMILES): CCOC(=O)C(CCc1ccccc1)NC(C)C(=O)N1Cc2ccccc2CC1C(=O)O.Cl (configuration not stated) (library stock concentration (final ~1000-fold dilution): 10 mM)
- NF-kB SEAP reporter activity (RAW-Dual [2]; agonist: LPS (TLR4) 0.1 ug/mL): 0.94
- NF-kB SEAP reporter activity (RAW-Dual [2]; [5]): 1.07
- NF-kB SEAP reporter activity (RAW-Dual [2]; [6]): 1.26
- NF-kB SEAP reporter activity (RAW-Dual [2]; [7]): 1.05

Structure (SMILES): CCOC(=O)C(CCc1ccccc1)NC(C)C(=O)N1Cc2ccccc2CC1C(=O)O.Cl (configuration not stated)
- NF-kB SEAP reporter activity (RAW-Dual [1]; [3]): 1.02
- NF-kB SEAP reporter activity (RAW-Dual [1]; [4]): 1.03

Structure (SMILES): Cl.NC12CC3CC(CC(C3)C1)C2 (library stock concentration (final ~1000-fold dilution): 10 mM)
- NF-kB SEAP reporter activity (RAW-Dual [2]; agonist: LPS (TLR4) 0.1 ug/mL): 1.03
- NF-kB SEAP reporter activity (RAW-Dual [2]; [5]): 0.798
- NF-kB SEAP reporter activity (RAW-Dual [2]; [6]): 0.873
- NF-kB SEAP reporter activity (RAW-Dual [2]; [7]): 1.02

Structure (SMILES): Cl.NC12CC3CC(CC(C3)C1)C2
- NF-kB SEAP reporter activity (RAW-Dual [1]; [3]): 0.884
- NF-kB SEAP reporter activity (RAW-Dual [1]; [4]): 1.08

Structure (SMILES): Cc1cnc(Nc2ccc(F)cc2Cl)nc1-c1c[nH]c(C(=O)NC(CO)c2cccc(Cl)c2)c1 (configuration not stated) (library stock concentration (final ~1000-fold dilution): 10 mM)
- NF-kB SEAP reporter activity (RAW-Dual [2]; agonist: LPS (TLR4) 0.1 ug/mL): 0.359
- NF-kB SEAP reporter activity (RAW-Dual [2]; [5]): 0.482
- NF-kB SEAP reporter activity (RAW-Dual [2]; [6]): 0.0809
- NF-kB SEAP reporter activity (RAW-Dual [2]; [7]): 0.13

Structure (SMILES): Cc1cnc(Nc2ccc(F)cc2Cl)nc1-c1c[nH]c(C(=O)NC(CO)c2cccc(Cl)c2)c1 (configuration not stated)
- NF-kB SEAP reporter activity (RAW-Dual [1]; [3]): 0.304
- NF-kB SEAP reporter activity (RAW-Dual [1]; [4]): 0.428

Structure (SMILES): CC(C)(C)c1ccc(C(=O)CCCN2CCC(OC(c3ccccc3)c3ccccc3)CC2)cc1 (library stock concentration (final ~1000-fold dilution): 2 mM)
- NF-kB SEAP reporter activity (RAW-Dual [2]; agonist: LPS (TLR4) 0.1 ug/mL): 1.36
- NF-kB SEAP reporter activity (RAW-Dual [2]; [5]): 1.32
- NF-kB SEAP reporter activity (RAW-Dual [2]; [6]): 1.02
- NF-kB SEAP reporter activity (RAW-Dual [2]; [7]): 1.13

Structure (SMILES): CC(C)(C)c1ccc(C(=O)CCCN2CCC(OC(c3ccccc3)c3ccccc3)CC2)cc1
- NF-kB SEAP reporter activity (RAW-Dual [1]; [8]): 1.14
- NF-kB SEAP reporter activity (RAW-Dual [1]; [9]): 1.17

Structure (SMILES): CCOC(=O)C1=CC2(CC)CCCN3CCc4c(n1c1ccccc41)C32 (configuration not stated) (library stock concentration (final ~1000-fold dilution): 2 mM)
- NF-kB SEAP reporter activity (RAW-Dual [2]; agonist: LPS (TLR4) 0.1 ug/mL): 1.38
- NF-kB SEAP reporter activity (RAW-Dual [2]; [5]): 0.889
- NF-kB SEAP reporter activity (RAW-Dual [2]; [6]): 1.09
- NF-kB SEAP reporter activity (RAW-Dual [2]; [7]): 1.15

Structure (SMILES): CCOC(=O)C1=CC2(CC)CCCN3CCc4c(n1c1ccccc41)C32 (configuration not stated)
- NF-kB SEAP reporter activity (RAW-Dual [1]; [8]): 0.798
- NF-kB SEAP reporter activity (RAW-Dual [1]; [9]): 1.1

Structure (SMILES): NC(Cc1ccccc1)C(=O)O (configuration not stated) (library stock concentration (final ~1000-fold dilution): 2 mM water)
- NF-kB SEAP reporter activity (RAW-Dual [2]; agonist: LPS (TLR4) 0.1 ug/mL): 1.49
- NF-kB SEAP reporter activity (RAW-Dual [2]; [5]): 1.09
- NF-kB SEAP reporter activity (RAW-Dual [2]; [6]): 1.16
- NF-kB SEAP reporter activity (RAW-Dual [2]; [7]): 1.04

Structure (SMILES): NC(Cc1ccccc1)C(=O)O (configuration not stated)
- NF-kB SEAP reporter activity (RAW-Dual [1]; library stock concentration (final ~1000-fold dilution): 2 mM water, agonist: Imiquimod (TLR7) […]): 0.909
- NF-kB SEAP reporter activity (RAW-Dual [1]; library stock concentration (final ~1000-fold dilution): 2 mM water, agonist: MPLA (TLR4) […]): 1.03

Structure (SMILES): Cc1noc(C)c1-c1cnc2c(-c3ccc(C(=O)O)cc3)cn(C(C)c3ccccn3)c2c1 (configuration not stated) (library stock concentration (final ~1000-fold dilution): 10 mM)
- NF-kB SEAP reporter activity (RAW-Dual [2]; agonist: LPS (TLR4) 0.1 ug/mL): 2.32
- NF-kB SEAP reporter activity (RAW-Dual [2]; [5]): 1.73
- NF-kB SEAP reporter activity (RAW-Dual [2]; [6]): 0.767
- NF-kB SEAP reporter activity (RAW-Dual [2]; [7]): 2.09

Structure (SMILES): Cc1noc(C)c1-c1cnc2c(-c3ccc(C(=O)O)cc3)cn(C(C)c3ccccn3)c2c1 (configuration not stated)
- NF-kB SEAP reporter activity (RAW-Dual [1]; [3]): 1.59
- NF-kB SEAP reporter activity (RAW-Dual [1]; [4]): 2.29

Structure (SMILES): Nc1c(CC(=O)O)cccc1C(=O)c1ccc(Br)cc1 (library stock concentration (final ~1000-fold dilution): 10 mM)
- NF-kB SEAP reporter activity (RAW-Dual [2]; agonist: LPS (TLR4) 0.1 ug/mL): 1.39
- NF-kB SEAP reporter activity (RAW-Dual [2]; [5]): 0.943
- NF-kB SEAP reporter activity (RAW-Dual [2]; [6]): 0.89
- NF-kB SEAP reporter activity (RAW-Dual [2]; [7]): 1.04

Structure (SMILES): Nc1c(CC(=O)O)cccc1C(=O)c1ccc(Br)cc1
- NF-kB SEAP reporter activity (RAW-Dual [1]; [3]): 0.922
- NF-kB SEAP reporter activity (RAW-Dual [1]; [4]): 0.993

Structure (SMILES): Cn1nccc1Nc1nccc(-c2cc3c(s2)C(C)(C)N(CCN2CCOCC2)C3=O)n1 (library stock concentration (final ~1000-fold dilution): 10 mM)
- NF-kB SEAP reporter activity (RAW-Dual [2]; agonist: LPS (TLR4) 0.1 ug/mL): 0.473
- NF-kB SEAP reporter activity (RAW-Dual [2]; [5]): 0.371
- NF-kB SEAP reporter activity (RAW-Dual [2]; [6]): 0.0728
- NF-kB SEAP reporter activity (RAW-Dual [2]; [7]): 0.14

Structure (SMILES): Cn1nccc1Nc1nccc(-c2cc3c(s2)C(C)(C)N(CCN2CCOCC2)C3=O)n1
- NF-kB SEAP reporter activity (RAW-Dual [1]; [3]): 0.273
- NF-kB SEAP reporter activity (RAW-Dual [1]; [4]): 0.302
